Activity change, negative = inhibition data for 27 compounds are collected here from PubChem BioAssay AID1745853 (National Center for Advancing Translational Sciences (NCATS), 2022).

The other results are listed elsewhere or left out. Shown are side measurements of this screen, not its main read-out; they come without a call.

Assay in all cases: Primary Screen for Target Class Profiling of Small Molecule Inhibitors of Methyltransferases
Assay [1] concerns the target Glycine N-methyltransferase (Homo sapiens) (UniProt Q14749). The conditions noted are these: purified enzyme, MTase-Glo SAH luminescence; measured here: GNMT inhibition; at 40 µM; stronger effect = lower value. In a few lines: (§1)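 Each enzyme was assayed with SAM and its substrate. SAH formation detected by MTase-Glo luminescence; single-point 40 uM screen[…].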

Assay [2] concerns the target Guanidinoacetate N-methyltransferase (Homo sapiens) (UniProt Q14353). The conditions noted are these: purified enzyme, MTase-Glo SAH luminescence; measured here: GAMT inhibition; at 40 µM; stronger effect = lower value. Summed up:
as §1

In assay [3] the target is Histamine N-methyltransferase (Homo sapiens) (UniProt P50135). The conditions noted are these: purified enzyme, MTase-Glo SAH luminescence; measured here: HNMT inhibition; at 40 µM; stronger effect = lower value. In a few lines:
as §1

In assay [4] the target is Nicotinamide N-methyltransferase (Homo sapiens) (UniProt P40261). The conditions noted are these: purified enzyme, MTase-Glo SAH luminescence; measured here: NNMT inhibition; at 40 µM; stronger effect = lower value. Summed up:
as §1

Assay [5] has as its target Phenylethanolamine N-methyltransferase (Homo sapiens) (UniProt P11086). The conditions noted are these: purified enzyme, MTase-Glo SAH luminescence; measured here: PNMT inhibition; at 40 µM; stronger effect = lower value. In a few lines:
as §1
On the % scale 0 is the no-effect control and ±100 the full control effect.

As for `CC(C)CCNC(=O)C1(C)Cn2nc(C(=O)NCc3ccc(N(C)C)cc3)cc2C(=O)N1C` (stereo not given), the activity change, negative = inhibition is 10.7% in assay [1]; 0.256% in assay [2]; 9.48% in assay [3]; 0.202% in assay [4]; 6.32% in assay [5].
Regarding `CC(C)c1ccc2c(c1)C(=O)CC1C(C)(C(=O)O)CCCC21C` (stereo not given), the activity change, negative = inhibition is -3.19% in assay [1]; -8.82% in assay [2]; 3.18% in assay [3]; -22.1% in assay [4]; -4.61% in assay [5].
Take `O=C(C[C@@H]1C(C(=O)O)=CO[C@@H](O[C@@H]2O[C@H](CO)[C@@H](O)[C@H](O)[C@H]2O)/C1=C\CO)OCCc1ccc(O)cc1`: the activity change, negative = inhibition in assay [1] is -0.178%; in assay [2], 1.64%; in assay [3], 1.73%; in assay [4] it was -10.1%; in assay [5] it was 6.05%.
In the case of `COc1ccc(CCN2C(=O)c3cc4occc4n3CC2(C)C(=O)NC2CCCCCC2)c(OC)c1` (stereo not given), the activity change, negative = inhibition in assay [1] was -5.89%; in assay [2], 2.38%; in assay [3], -0.707%; in assay [4], -10.6%; in assay [5], -4.82%.
As for `Cc1ccc(NC(=O)CSc2nnc3n(C)c(=O)c4ccc(C(=O)NC5CCCCC5)cc4n23)c(C)c1`, the activity change, negative = inhibition in assay [1] came out at 0.754%; in assay [2] it was 1.71%; in assay [3], 0.226%; in assay [4], 6.15%; in assay [5], 5.27%.
`Cc1noc(-c2cccs2)c1C(=O)NCc1ccco1`: the activity change, negative = inhibition in assay [1] is -7.72%; in assay [2] it was 0.041%; in assay [3], -1.94%; in assay [4], -3.28%; in assay [5] it was 0.509%.
In the case of `COCCNC(=O)c1ncn2c1C(=O)N(C1CC1)C(C)(C(=O)NCc1cccc(C)c1)C2` (stereo not given), the activity change, negative = inhibition in assay [1] was found to be 4.3%; in assay [2] it was 1.79%; in assay [3] it was 13.8%; in assay [4], 5.36%; in assay [5], 10%.
As for `Cc1ccc(Cn2nc3n(Cc4ccc(C)cc4)c(=O)c4ccc(C(=O)NC(C)C)cc4n3c2=O)cc1`, the activity change, negative = inhibition in assay [1] is 4.24%; in assay [2] it was 0%; in assay [3], 3.85%; in assay [4] it was 6.01%; in assay [5] it was 4.2%.
With `Cc1ccc(C#N)c(N2CCN(C3CCCC3)C(CCO)C2)n1` (stereo not given), the activity change, negative = inhibition in assay [1] is -0.878%; in assay [2], 2.25%; in assay [3] it was 2.42%; in assay [4], 2.47%; in assay [5], -10%.
In the case of `O=C1CCN(C(=O)CCCc2ccccc2)CCCC(CO)CCN1` (stereo not given), the activity change, negative = inhibition in assay [1] was -0.847%; in assay [2], 2.09%; in assay [3], 0.249%; in assay [4], -5.54%; in assay [5] it was 13.4%.
The corresponding values for `CCC(C)NC(=O)c1ccc2c(=O)n(C3CC3)c3nn(CC(=O)Nc4cccc(C)c4)c(=O)n3c2c1` (stereo not given) are -0.29%, 2.12%, 4.89%, -0.374% and -1.62%.
On to `CC(=O)OC1C(O)CC(O[C@@H]2O[C@H](CO)[C@@H](O)[C@H](O)[C@H]2O)C2CCC3C(=O)OC(c4ccoc4)CC3(C)C21` (stereo not given in full), for which the activity change, negative = inhibition in assay [1] was 0%; in assay [2], 0.167%; in assay [3], 5.51%; in assay [4], -8.5%; in assay [5], 1.59%.
In the same order, the values of `CCC(COC)n1nnc2c(Nc3ccc(OC)cc3C)nc(C)cc21` (stereo not given) are 0.544%, 1.74%, 10.5%, -16.6% and -6.03%.
Consider `CC1(C(=O)NC2CCCCCC2)Cn2c(ccc2-c2ccccc2)C(=O)N1CCC1=CCCCC1` (stereo not given), for which the activity change, negative = inhibition in assay [1] was -1.92%; in assay [2] it was 0.943%; in assay [3], -4.45%; in assay [4] it was 1.04%; in assay [5], -2.61%.
With `COc1ccc2cc3n(c2c1)CC(C)(C(=O)NCC1CCCO1)N(Cc1ccc(F)cc1)C3=O` (stereo not given), the activity change, negative = inhibition in assay [1] came to 5.99%; in assay [2], 0.679%; in assay [3], 8.61%; in assay [4] it was 6.54%; in assay [5], 4.42%.
For `Cc1ccccc1Cn1nc2n(C(C)C)c(=O)c3ccc(C(=O)NC4CCCCC4)cc3n2c1=O`, the activity change, negative = inhibition in assay [1] is 8.31%; in assay [2], 0.82%; in assay [3] it was 11.5%; in assay [4], 8.01%; in assay [5], 7.96%.
Consider `COC(=O)CCNC(=O)C1CN(S(=O)(=O)c2cccs2)CC12CCCCC2` (stereo not given), for which the activity change, negative = inhibition in assay [1] is -5.03%; in assay [2], -2.39%; in assay [3], -1.02%; in assay [4] it was -2.06%; in assay [5] it was 1.7%.
Consider `COc1ccccc1CNCCCCCCNCCCCCCCCNCCCCCCNCc1ccccc1OC`, for which the activity change, negative = inhibition in assay [1] is -7.36%; in assay [2], 0.887%; in assay [3], -56.1%; in assay [4] it was -13.4%; in assay [5] it was -4.63%.
For the compound `CC[C@@H](N)CNc1ccnc(-c2cc(-c3cnn(C)c3)ccc2O)n1`, the activity change, negative = inhibition was -8.21% in assay [1]; -3.1% in assay [2]; -21.9% in assay [3]; -23.9% in assay [4]; -12% in assay [5].
`C[C@@H]1O[C@@H](O[C@H]2[C@H](OC(=O)[C@]34CCC(C)(C)C[C@H]3C3=CCC5[C@@]6(C)CC[C@H](O[C@@H]7O[C@H](C(=O)O)[C@@H](O)[C@H](O)[C@H]7O[C@@H]7O[C@H](CO)[C@H](O)[C@H](O)[C@H]7O)[C@@](C)(C=O)C6CC[C@@]5(C)[C@]3(C)C[C@H]4O)O[C@H](C)[C@H](O[C@@H]3O[C@H](C)[C@H](O)[C@H](O)[C@H]3O)[C@@H]2O)[C@H](O)[C@H](O)[C@H]1O[C@@H]1OC[C@@H](O)[C@H](O[C@@H]2O[C@H](CO)[C@@H](O)[C@H](O)[C@H]2O)[C@H]1O` (stereo not given in full): the activity change, negative = inhibition in assay [1] is 2.16%; in assay [2], 9.67%; in assay [3], 7.48%; in assay [4], 0.797%; in assay [5], 10.1%.
On to `COc1cc(OC(F)(F)F)ccc1C(=O)N1CCC(C)(C(=O)O)CC1`, for which the activity change, negative = inhibition in assay [1] was -2.89%; in assay [2] it was -1.36%; in assay [3], -0.224%; in assay [4], -5.19%; in assay [5], 0.209%.
Take `CC(C)CN(C1CCN(C)CC1)C1CN(C(=O)c2cccs2)C1`: the activity change, negative = inhibition in assay [1] is -1.14%; in assay [2], -0.736%; in assay [3] it was -6.03%; in assay [4] it was -8.52%; in assay [5] it was 13.3%.
For the compound `CC1(C)CC2C3=CCC4C5(C)CCC(OC6OC(CO)C(O)C(OC7OC(CO)C(O)C(OC8OC(CO)C(O)C(OC9OC(COC%10OC(CO)C(O)C(O)C%10O)C(O)C(O)C9O)C8O)C7O)C6O)C(C)(C)C5CCC4(C)C3(C)CCC2(C(=O)O)CC1O` (stereo not given), the activity change, negative = inhibition in assay [1] was -3.71%; in assay [2] it was 0.969%; in assay [3] it was 1.5%; in assay [4], -12.1%; in assay [5] it was -3.14%.
With `C=C1C[C@@]23CC[C@@H]4[C@](C)(C(=O)O)CCC[C@@]4(C)C2=CC[C@H]1C3`, the activity change, negative = inhibition is 0% in assay [1]; 2.79% in assay [2]; 11.6% in assay [3]; -16.8% in assay [4]; -1% in assay [5].
Take `Cc1noc(C)c1S(=O)(=O)NCCc1noc(-c2ccccc2)n1`: the activity change, negative = inhibition in assay [1] was -2.19%; in assay [2], -0.035%; in assay [3], 1.27%; in assay [4], -0.885%; in assay [5] it was 1.35%.
On to `CCCCCCOc1cc2c(cc1N(C)c1ncc(C(=O)O)cn1)C(C)(C)CCC2(C)C`, for which the activity change, negative = inhibition in assay [1] was 7.45%; in assay [2], 8.92%; in assay [3], 4.82%; in assay [4] it was -16.7%; in assay [5], 1.62%.
As for `O=C(Nc1ccc(F)cc1)N[C@H]1[C@H](O)[C@@H](N2CCOCC2)[C@@H]2OC[C@H]1O2`, the activity change, negative = inhibition in assay [1] was -1%; in assay [2] it was -2.39%; in assay [3] it was 1.31%; in assay [4] it was -6.31%; in assay [5] it was 13%.
